Measured values: the supplement of paper PMC9446081
About 220 (0.56%) of roughly 39,000 compounds showed activity. The list shows a part of the results.

system: Escherichia coli K-12 BW25113; assay: relative growth (OD600 normalised to plate interquartile mean) (fraction); higher = less growth inhibition, active = 0.2 or less; settings: 50 µM; LB; incubation time: overnight (16-24 h)
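Note: static incubation at 37 °C against the wild-type strain, values averaged over two biological replicates.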

Compound | relative growth
COc1ccc(S(=O)(=O)N(C)C[C@@H]2Oc3ncc(C#Cc4ccc(OC)c(OC)c4)cc3C(=O)N([C@H](C)CO)C[C@@H]2C)cc1 | inactive: 0.91
C[C@H]1CN([C@@H](C)CO)C(=O)c2cc(NS(=O)(=O)c3cn(C)cn3)ccc2O[C@@H]1CN(C)S(=O)(=O)c1ccc(Cl)cc1 | inactive: 0.999
Cc1ccc(S(=O)(=O)Nc2cccc3c2O[C@@H](CN(C)Cc2ccc(-c4ccccc4)cc2)[C@@H](C)CN([C@H](C)CO)C3=O)cc1 | inactive: 1.03
C[C@H](CO)N1C[C@H](C)[C@H](CN(C)C(=O)Nc2ccc(C(F)(F)F)cc2)Oc2c(NS(=O)(=O)c3ccc(Cl)cc3)cccc2C1=O | inactive: 0.993
C[C@H]1CN([C@@H](C)CO)C(=O)Cc2cc(NC(=O)Nc3ccc(C(F)(F)F)cc3)ccc2O[C@H]1CN(C)C(=O)Nc1ccc(F)cc1 | inactive: 0.997
O=C(COc1ccc(S(=O)(=O)N2CCOCC2)cc1)NCCCn1ccnc1 | inactive: 0.984
C[C@@H]1CCCCO[C@@H](CN(C)C(=O)C2CCCCC2)[C@@H](C)CN([C@H](C)CO)C(=O)c2cc(NS(=O)(=O)c3ccc(Cl)cc3)ccc2O1 | inactive: 1.01
Oc1ccc(O)cc1 | inactive: 1.14
COc1cc2ncnc(Oc3cccc(NC(=O)Nc4cc(C(C)(C)C(F)(F)F)on4)c3)c2cc1OC | inactive: 0.843
Nc1cc[nH]c(=O)n1 | inactive: 0.997
COC(=O)C[C@@H]1CC[C@H]2[C@@H](COC[C@@H](O)CN2S(=O)(=O)c2cn(C)cn2)O1 | inactive: 0.982
C[C@@H]1CN([C@@H](C)CO)C(=O)Cc2cc(NC(=O)Nc3ccc(F)cc3)ccc2O[C@@H]1CN(C)Cc1ccc(Cl)c(Cl)c1 | inactive: 0.978
C[C@@H]1CN([C@@H](C)CO)S(=O)(=O)c2ccc(C#Cc3ccccc3F)cc2O[C@H]1CN(C)CC1CC1 | inactive: 1.03
CN1CCN(C(=O)C[C@H]2CC[C@@H]3[C@H](COC[C@H](O)CN3C(=O)Nc3cc(Cl)cc(Cl)c3)O2)CC1 | inactive: 0.917
Cc1ccccc1-n1ccc(=O)[nH]c1=O | inactive: 0.93
C[C@@H]1CN([C@@H](C)CO)C(=O)c2cc(NC(=O)Cc3cn(C)c4ccccc34)ccc2O[C@@H]1CN(C)Cc1ccc(Oc2ccccc2)cc1 | inactive: 0.983
C[C@H](CO)N1C[C@H](C)[C@H](CN(C)C(=O)Nc2cccc3ccccc23)Oc2ccc(NC(=O)Cc3ccccc3)cc2CC1=O | inactive: 0.97
C[C@H](CO)N1C[C@H](C)[C@@H](CN(C)C(=O)Cc2ccncc2)Oc2cc(C3=CCCC3)ccc2S1(=O)=O | inactive: 0.997
CCNC(=O)C[C@H]1CC[C@H]2[C@@H](COC[C@@H](O)CN2C(=O)Nc2c(C)noc2C)O1 | inactive: 1.01
C[C@H]1CN([C@@H](C)CO)C(=O)c2cc(NS(=O)(=O)c3ccccc3)ccc2O[C@H]1CN(C)C(=O)Nc1cccc2ccccc12 | inactive: 0.978
Cc1ccc(S(=O)(=O)N(C)C[C@H]2Oc3ccc(NS(C)(=O)=O)cc3CC(=O)N([C@@H](C)CO)C[C@H]2C)cc1 | inactive: 1.01

Compound | relative growth
NC(=O)c1ncn([C@H]2O[C@@H](COP(=O)(O)O)[C@@H](O)[C@@H]2O)c1N | inactive: 0.978
CCc1c(C)[nH]c(=S)c(C#N)c1C | inactive: 1.01
O=C(C[C@@H]1C=C[C@H](NS(=O)(=O)c2ccc(F)cc2)[C@@H](CO)O1)NCCN1CCCCC1 | inactive: 1
C[C@H]1CN([C@@H](C)CO)C(=O)c2cc(NC(=O)Nc3cccc4ccccc34)ccc2O[C@@H]1CN(C)S(=O)(=O)c1ccc(Cl)cc1 | inactive: 1.05
C[C@@H]1CN([C@H](C)CO)C(=O)Cc2cc(NC(=O)Nc3cccc4ccccc34)ccc2O[C@@H]1CN(C)CC1CCCCC1 | inactive: 1.03
O=C(C[C@H]1C[C@@H]2c3cc(NC(=O)c4ccc5c(c4)OCO5)ccc3O[C@@H]2[C@H](CO)O1)NCC(F)(F)F | inactive: 0.991
C[C@@H]1CN([C@H](C)CO)C(=O)c2cc(NC(=O)Cn3cnnn3)ccc2O[C@H]1CN(C)Cc1ccccc1 | inactive: 1.02
Cc1ccc(S[C@]2(C(=O)NC(C)C)CC(=O)N(Cc3ccccc3C(F)(F)F)[C@@H]2c2ccc(CO)cc2)cc1 | inactive: 0.95
COc1ccc(S(=O)(=O)Nc2ccc3c(c2)C(=O)N([C@@H](C)CO)C[C@@H](C)[C@H](CN(C)S(C)(=O)=O)O3)cc1 | inactive: 1.01
C[C@H](O)C#Cc1ccc2c(c1)O[C@@H](CN(C)C(=O)Nc1ccccc1)[C@H](C)CN([C@@H](C)CO)S2(=O)=O | inactive: 1
C[C@H]1CN(C)C(=O)c2cc(NS(C)(=O)=O)ccc2O[C@H]1CN(C)S(C)(=O)=O | inactive: 0.997
C[C@@H]1CCCCO[C@@H](CN(C)S(=O)(=O)c2ccc(Cl)cc2)[C@@H](C)CN([C@@H](C)CO)C(=O)c2cc(NC(=O)CCC(F)(F)F)ccc2O1 | inactive: 1
C[C@@H]1CN([C@H](C)CO)C(=O)Cc2cc(NC(=O)CCCCCC(=O)Nc3ccccc3N)ccc2O[C@H]1CN(C)C(=O)Nc1ccc(F)cc1 | inactive: 0.974
COc1ccc(S(=O)(=O)Nc2cccc3c2O[C@@H](CN(C)S(=O)(=O)c2ccc(F)cc2)[C@@H](C)CN([C@H](C)CO)C3=O)cc1 | inactive: 1.04
COc1ccc([C@@H]([C@H](Cc2ccccc2)OC(C)=O)N2C[C@@H](NC(=O)C(Cl)(Cl)Cl)[C@@H]3C(=NO[C@H]3c3ccccc3)[C@@H]2Cc2ccccc2)cc1 | inactive: 0.994
Cc1noc(C)c1S(=O)(=O)Nc1ccc2c(c1)C(=O)N([C@H](C)CO)C[C@H](C)[C@H](CN(C)Cc1ccccc1)OCCCC[C@H](C)O2 | inactive: 0.987
O=C(C[C@@H]1CC[C@@H](NS(=O)(=O)c2ccccc2)[C@H](CO)O1)NCc1ccncn1 | inactive: 0.916
Cc1ccc(S(=O)(=O)N(C)C[C@H]2OCCCC[C@H](C)Oc3ccc(NC(=O)Cc4ccccc4)cc3C(=O)N([C@H](C)CO)C[C@H]2C)cc1 | inactive: 1.01
C[C@@H]1CCCCO[C@@H](CN(C)C(=O)Nc2ccc(C(F)(F)F)cc2)[C@@H](C)CN([C@H](C)CO)C(=O)c2cc(NC(=O)NC3CCCCC3)ccc2O1 | inactive: 1.04
CC(C)NC(=O)Nc1ccc2c(c1)C(=O)N([C@H](C)CO)C[C@H](C)[C@H](CN(C)S(=O)(=O)c1cn(C)cn1)OCCCC[C@@H](C)O2 | inactive: 1.01
C[C@H](CO)N1C[C@H](C)[C@@H](CN(C)S(=O)(=O)c2ccc(F)cc2)Oc2cc(Br)ccc2S1(=O)=O | inactive: 1.01

Compound | relative growth
COc1ccc(S(=O)(=O)Nc2ccc3c(c2)C(=O)N([C@H](C)CO)C[C@H](C)[C@H](CN(C)Cc2ccc(C(=O)O)cc2)OCCCC[C@H](C)O3)cc1 | inactive: 1
CCOC(=O)c1cccnc1N | inactive: 0.899
C[C@@H]1CN([C@H](C)CO)C(=O)c2cc(C#Cc3ccncc3)cnc2O[C@H]1CN(C)C(=O)c1ccccc1F | inactive: 0.994
CO[C@@H](CN(C)S(=O)(=O)c1ccc(C)cc1)[C@@H](C)CN([C@H](C)CO)S(=O)(=O)c1cccc(Cl)c1 | inactive: 1.03
O=C1OCC=C[C@H]2O[C@@]34C=CCN(c5ccc6ccccc6c5)C(=O)[C@H]3N(CCCCCCO)C(=O)[C@@H]4[C@@H]12 | inactive: 1
CCCN(C)C[C@@H]1OCCCC[C@@H](C)Oc2ccc(NS(=O)(=O)c3ccc(Cl)cc3)cc2C(=O)N([C@@H](C)CO)C[C@@H]1C | inactive: 0.992
Cc1ccc(S(=O)(=O)Nc2cccc3c2O[C@@H](CN(C)S(=O)(=O)c2ccccc2)[C@H](C)CN([C@H](C)CO)C3=O)cc1 | inactive: 0.9
OC[C@H]1O[C@@H](O)[C@@H](O)[C@@H](O)[C@@H]1O | inactive: 1
Cc1noc(C)c1NC(=O)N(C)C[C@H]1Oc2ccc(NS(C)(=O)=O)cc2CC(=O)N([C@H](C)CO)C[C@@H]1C | inactive: 0.995
C[C@@H]1CN([C@@H](C)CO)C(=O)c2cc(NC(=O)CCCN(C)C)ccc2O[C@@H](C)CCCCO[C@H]1CN(C)Cc1ccc(C(F)(F)F)cc1 | inactive: 0.972
COc1cc2c(N3CCN(C(=O)Nc4ccc(OC(C)C)cc4)CC3)ncnc2cc1OCCCN1CCCCC1 | inactive: 0.988
C[C@@H]1CCCCO[C@@H](CN(C)Cc2ccc(C(F)(F)F)cc2)[C@H](C)CN([C@@H](C)CO)C(=O)c2cc(NS(=O)(=O)c3cn(C)cn3)ccc2O1 | inactive: 1.01
CC(=O)N[C@@H](CC(C)C)C(=O)O | inactive: 0.957
C[C@H](CO)N1C[C@H](C)[C@@H](CN(C)Cc2ccc(-c3ccccc3)cc2)Oc2c(NC(=O)c3ccncc3)cccc2C1=O | inactive: 1.03
C[C@@H]1CN([C@H](C)CO)C(=O)c2cccc(NS(C)(=O)=O)c2O[C@H]1CN(C)Cc1ccc(C(=O)Nc2ccccc2N)cc1 | inactive: 0.998
COc1ccc(NC(=O)Nc2ccc3c(c2)C(=O)N([C@@H](C)CO)C[C@H](C)[C@@H](CN(C)Cc2ccc(C(F)(F)F)cc2)O3)cc1 | inactive: 1.04
C[C@@H]1CN([C@@H](C)CO)C(=O)c2cc(NC(=O)Nc3cccc4ccccc34)ccc2O[C@@H]1CN(C)Cc1ccccc1 | inactive: 1.07
CCCCc1ccc(CC(=O)O)cc1 | inactive: 0.986
Cc1ccc2sc(C)nc2c1 | inactive: 0.989
C[C@H](CO)N1C[C@H](C)[C@@H](CN(C)Cc2ccccc2)Oc2c(NS(=O)(=O)c3cn(C)cn3)cccc2C1=O | inactive: 0.986
